Data from PubChem BioAssay AID504845 (National Center for Advancing Translational Sciences (NCATS), 2011).
The campaign covered roughly 390,000 compounds. About 150 (0.038%) were called active. Inconclusive results, whose numbers are uncertain, are shown with a selection of clear calls. The call rests on the fitted dose curve; in most records, active means well fitted inhibition curve with a large enough effect; inconclusive means small, poorly fitted or top-dose-only effect; inactive means no such curve, though single readings can be large or run the other way. Potencies of inconclusive entries are doubtful fits and often do not repeat.

The molecules below were run against Regulator of G-protein signaling 4 (Homo sapiens) (UniProt P49798) (assay: Inhibitors of Regulator of G Protein Signaling (RGS) 4: qHTS). Conditions: Transcreener GDP fluorescence polarization, RGS4-accelerated GTP hydrolysis; series mostly up to 114 µM; activity change, negative = inhibition: at the top concentration.
In short: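 MLSMR compounds (23 nl, pin-transferred) preincubated 10 min at room temperature with a 500nM (2x) first reagent, then RGS4 at 900nM (2x) plus Transcreener GDP mix added; fluorescence polarization (620/688 nm) read before and after 90 min at 30 °C.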
Further: nearly all actives have a fitted effect of over 75% in size.
On the % scale 0 is the no-effect control and ±100 the full control effect; potency means the concentration at half of the fitted maximal effect; tags describe the fitted curve by direction and shape.

Sequence of UniProt P49798 (P49798 whole entry, looked up): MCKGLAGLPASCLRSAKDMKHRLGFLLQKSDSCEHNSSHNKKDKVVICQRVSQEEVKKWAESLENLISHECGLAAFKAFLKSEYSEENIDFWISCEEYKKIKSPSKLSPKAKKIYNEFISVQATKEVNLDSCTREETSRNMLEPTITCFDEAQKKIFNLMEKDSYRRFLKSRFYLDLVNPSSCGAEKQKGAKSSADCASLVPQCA

| Structure (SMILES) | Potency | activity change, negative = inhibition |
| --- | --- | --- |
| O=C(CCn1c(=O)sc2ccccc21)NCc1ccccc1 | inconclusive: 79.4 µM [inhibitor, single point] |  |
| CC1CNCCN1S(=O)(=O)c1cccc2cnccc12 (stereo unspecified) | inconclusive: 8.43 µM [inhibitor, single point] |  |
| COc1cc(C(=O)NCC(=O)N/N=C/c2ccc(-c3cccc([N+](=O)[O-])c3)o2)cc(OC)c1OC | inconclusive: 100 µM [inhibitor, single point] |  |
| O=C(COc1ccccc1)NC(NC(=S)Nc1ccccc1C(=O)O)C(Cl)(Cl)Cl (stereo unspecified) | inconclusive: 89.1 µM [inhibitor, single point] |  |
| CCOc1cccc(CNc2ccc(O)cc2)c1OCc1ccc(Cl)cc1 | inconclusive: 31.6 µM [inhibitor, full curve, poor fit] |  |
| CC(C)(C)NC(=O)CSc1ncnc2c1nnn2Cc1ccccc1Cl | inconclusive: 50.1 µM [inhibitor, partial curve, poor fit] |  |
| CCCCn1c(N)c(N(CCOC)C(=O)c2cc3c(s2)CCC(C)C3)c(=O)[nH]c1=O (stereo unspecified) |  | inactive: -19% |
| COc1ccc(NC(=O)CCc2nnc3ccc(NCc4ccc5c(c4)OCO5)nn23)cc1 | inconclusive: 79.4 µM [inhibitor, partial curve, poor fit] |  |
| Cc1ccc(C(=O)C2=C(O)C(=O)N(Cc3ccccc3)C2c2cccnc2)o1 (stereo unspecified) |  | inactive: -13.8% |
| CCCCn1nc(C(=O)Oc2ccc3c(C)cc(=O)oc3c2)c2ccccc2c1=O |  | inactive: -26.1% |
| CCC(C)C(NC(=O)C1CCC(C)CC1)C(=O)Nc1ccc(OC)cc1 (stereo unspecified) | inconclusive: 79.4 µM [inhibitor, partial curve, poor fit] |  |
| CC(=O)Nc1ccn(C2OC(C(COC(C)=O)NC(=O)C(CCCCNC(=O)OCc3ccccc3)NC(=O)OC(C)(C)C)C(OC(C)=O)C2OC(C)=O)c(=O)n1 (stereo unspecified) |  | inactive: 30.8% |
| COCCCNc1oc(-c2ccccc2F)nc1C#N | inconclusive: 44.7 µM [inhibitor, partial curve, poor fit] |  |
| Cc1cc(C)cc(-n2nnn(C3C/C(=N/NC(N)=S)C4OCC3O4)c2=S)c1 (stereo unspecified) | inconclusive: 89.1 µM [inhibitor, partial curve, poor fit] |  |
| Cc1nc(C)c(CCNC(=O)c2ccccc2Br)s1 | inconclusive: 89.1 µM [inhibitor, single point] |  |
| N#Cc1cc2cc3c(cc2nc1N1CCCCC1)OCCO3 | inconclusive: 89.1 µM [inhibitor, single point] |  |
| CNc1cccccc1=S | inconclusive: 56.2 µM [inhibitor, partial curve, poor fit] |  |
| CC(C)Oc1ccc(C(=O)CCN2CCCCC2)cc1 | inconclusive: 50.1 µM [inhibitor, partial curve, poor fit] |  |
| C=C1c2cccc(OC)c2O[C@H](C(=O)OCC)[C@@H]1CCCCCC | inconclusive: 56.2 µM [inhibitor, partial curve, poor fit] |  |
| CCCN(CC(=O)Nc1ccccc1OC)C(=O)C1=COCCO1 | inconclusive: 89.1 µM [inhibitor, single point] |  |
| Cc1nc2cc(NCc3ccccc3O)ccc2n1Cc1ccccc1 | inconclusive: 56.2 µM [inhibitor, partial curve, poor fit] |  |
| CCC(C)(C)C1CCc2[nH]nc(C(=O)NC3CCCC3)c2C1 (stereo unspecified) |  | inactive: -12.4% |

| Structure (SMILES) | Potency | activity change, negative = inhibition |
| --- | --- | --- |
| COc1ccc(OC)c(NC(=O)C(C)Oc2ccc(Br)cc2)c1 (stereo unspecified) |  | inactive: -16.3% |
| C=CCNc1oc(-c2cccs2)nc1S(=O)(=O)c1ccccc1 |  | inactive: -29.5% |
| Fc1ccc(-n2c(=S)[nH]c3cccnc32)cc1 | inconclusive: 31.6 µM [inhibitor, partial curve, poor fit] |  |
| Cc1cc(C)n2nc(SCc3c(F)cccc3Cl)nc2n1 | inconclusive: 28.2 µM [inhibitor, full curve, poor fit] |  |
| N#C/C(=C\c1ccc(O)c([N+](=O)[O-])c1)c1nc2ccccc2s1 | inconclusive: 79.4 µM [inhibitor, partial curve, poor fit] |  |
| O=C(OCc1ccccc1)N1CCC2CC1c1cc(-c3ccccc3)ccc12 (stereo unspecified) |  | inactive: -4.98% |
| O=C(NP(=O)(N1CCOCC1)N1CCOCC1)C1=C(N2CCOCC2)/C(=C\c2ccccc2)CC1 | inconclusive: 22.4 µM [inhibitor, full curve, poor fit] |  |
| Cc1[nH]n(-c2ncc(-c3ccccc3)s2)c(=O)c1C(c1ccc(Br)cc1)C(C#N)C#N (stereo unspecified) | inconclusive: 50.1 µM [inhibitor, partial curve, poor fit] |  |
| CC(C)(C)c1ccc(C(=O)/C=C2\NC(=O)CS2)cc1 | inconclusive: 89.1 µM [inhibitor, single point] |  |
| O=C(CNc1ccccc1)N/N=C/c1ccc2c(c1)OCO2 | inconclusive: 56.2 µM [inhibitor, partial curve, poor fit] |  |
| Cc1ccc(CN(C)C(=O)c2cccc(S(=O)(=O)N3CCc4ccccc4C3)c2)o1 | inconclusive: 79.4 µM [inhibitor, partial curve, poor fit] |  |
| CCOC(=O)C1(CCOc2ccccc2)CCN(CC=C(C)C)CC1 |  | inactive: -14% |
| O=C(NCc1ccc(Cl)cc1)C1CCN(S(=O)(=O)c2ccccc2)CC1 | inconclusive: 35.5 µM [inhibitor, full curve, poor fit] |  |
| CCCCC/C=C\C\C=C/C=C/C=C/[C@@H](SC[C@H](NC(=O)CC[C@H](N)C(=O)O)C(=O)NCC(=O)O)[C@@H](O)CCCC(=O)O | inconclusive: 0.0053 µM [inhibitor, full curve, poor fit] |  |
| COc1cc(C(=O)NCc2nc3cccnc3n2Cc2ccc(C)cc2)cc(OC)c1OC |  | inactive: -22.7% |
| COc1ccc(N2CCN(C(=O)c3ccc4c(c3)OCO4)CC2)cc1 |  | inactive: 4.4% |
| Cc1ccc(-n2ncc3c(=O)n(Cc4cccnc4)cnc32)cc1 |  | inactive: -38.1% |
| COc1ccc([N+](=O)[O-])cc1NC(=S)Nc1ccccc1 |  | inactive: 12.9% |
| CC(=O)N1CCOc2ccc(S(=O)(=O)NCCc3ccc(S(N)(=O)=O)cc3)cc21 |  | inactive: 0.665% [at 56.9 µM] |
| O=C(CSc1nc2cc(S(=O)(=O)N3CCOCC3)ccc2o1)Nc1c(F)cccc1F | inconclusive: 79.4 µM [inhibitor, partial curve, poor fit] |  |
| COc1ccc(/C=N/NC(=O)c2[nH]nc3c2CCc2ccccc2-3)cc1OC | inconclusive: 31.6 µM [inhibitor, full curve, poor fit] |  |
| CCOC(=O)C1CCCN(C(=O)Cn2sc3nc(C)cc(C)c3c2=O)C1 (stereo unspecified) | inconclusive: 10 µM [inhibitor, full curve, poor fit] |  |

| Structure (SMILES) | Potency | activity change, negative = inhibition |
| --- | --- | --- |
| O=C1c2ccccc2C(=O)N1CC1CCCO1 (stereo unspecified) | inconclusive: 89.1 µM [inhibitor, single point] |  |
| Cc1c(C)c2cc(Cl)c(O)c(CN3CCCCC3)c2oc1=O |  | inactive: 9.74% |
| CCOc1cc(/C=N/O)ccc1OCc1ccc([N+](=O)[O-])cc1 | inconclusive: 70.8 µM [inhibitor, partial curve, poor fit] |  |
| Cc1ccc(-c2cc(C(=O)Nc3ccccc3C)c3ccccc3n2)o1 | inconclusive: 100 µM [inhibitor, partial curve, poor fit] |  |
| Cc1ccccc1CN1[C@@H](CC2CCCCC2)COCCS1(=O)=O | inconclusive: 50.1 µM [inhibitor, partial curve, poor fit] |  |
| COc1cc(CN(C)CC(=O)c2[nH]c(C)c(C(C)=O)c2C)ccc1OC(F)F | inconclusive: 79.4 µM [inhibitor, partial curve, poor fit] |  |
| COC(=O)C1=CNC=C(C(=O)OC)C1c1ccc(C(=O)OC)cc1 |  | inactive: 29.8% |
| CSc1nc(C)cc(Nc2c(C)cc(C)cc2C)n1 |  | inactive: 1.09% |
| CC1CCN(S(=O)(=O)c2cccc(C(=O)NCc3cccs3)c2)CC1 |  | inactive: 2.24% |
| Oc1ccc2c(c1)OCC1(O)Cc3cc(O)c(O)cc3C21 (stereo unspecified) | inconclusive: 35.5 µM [inhibitor, partial curve, poor fit] |  |
| CCCCc1cc(=O)oc2cc(C)c3c(C)coc3c12 |  | inactive: -17% |
| CCOC(=O)c1nn(-c2ccccc2)c(=O)cc1OCC(=O)Nc1cc(C)ccc1OC | inconclusive: 100 µM [inhibitor, single point] |  |
| CN(C)c1ccc(N=Cc2cccn2C)cc1 | inconclusive: 100 µM [inhibitor, partial curve, poor fit] |  |
| S=c1[nH]c2ccccc2n1CCOc1ccccc1 | inconclusive: 89.1 µM [inhibitor, partial curve, poor fit] |  |
| O=C(O)C1C2C=CC(C2)C1C(=O)NCc1ccoc1 (stereo unspecified) | inconclusive: 100 µM [inhibitor, single point] |  |
| Cc1nc(NC(=O)CC(C)C)sc1-c1csc(Nc2ccc(Cl)cc2)n1 | inconclusive: 17.8 µM [inhibitor, full curve, poor fit] |  |
| C/C(=N/NC(=O)Cc1cccs1)c1ccco1 | inconclusive: 28.2 µM [inhibitor, full curve, poor fit] |  |
| Cc1cc(C(=O)Nc2ccc(N3CCOCC3)cc2)c2ccccc2n1 | inconclusive: 89.1 µM [inhibitor, single point] |  |
| O=C(Nc1ccccc1Cl)c1ccc(-n2cccn2)c([N+](=O)[O-])c1 | inconclusive: 79.4 µM [inhibitor, partial curve, poor fit] |  |
| CCOC(=O)c1ccc(NC(=O)c2c(NCc3cccs3)sc3c2CCCCC3)cc1 | inconclusive: 39.8 µM [inhibitor, partial curve, poor fit] |  |
| COc1ccc(C(=O)Nc2cc(-c3cccc(C)c3)nn2-c2ccccc2)cc1 |  | inactive: 21.2% |
| Oc1ccc(-c2nc3ccccc3nc2-c2ccccc2)cc1 |  | inactive: -19.1% |
